# According to paper PMC6440744:
# Sequences of proteins named here, by UniProt entry; tags and fusion partners are left off. Residues count along the entry.
# UniProt P28827, residues 877-1452: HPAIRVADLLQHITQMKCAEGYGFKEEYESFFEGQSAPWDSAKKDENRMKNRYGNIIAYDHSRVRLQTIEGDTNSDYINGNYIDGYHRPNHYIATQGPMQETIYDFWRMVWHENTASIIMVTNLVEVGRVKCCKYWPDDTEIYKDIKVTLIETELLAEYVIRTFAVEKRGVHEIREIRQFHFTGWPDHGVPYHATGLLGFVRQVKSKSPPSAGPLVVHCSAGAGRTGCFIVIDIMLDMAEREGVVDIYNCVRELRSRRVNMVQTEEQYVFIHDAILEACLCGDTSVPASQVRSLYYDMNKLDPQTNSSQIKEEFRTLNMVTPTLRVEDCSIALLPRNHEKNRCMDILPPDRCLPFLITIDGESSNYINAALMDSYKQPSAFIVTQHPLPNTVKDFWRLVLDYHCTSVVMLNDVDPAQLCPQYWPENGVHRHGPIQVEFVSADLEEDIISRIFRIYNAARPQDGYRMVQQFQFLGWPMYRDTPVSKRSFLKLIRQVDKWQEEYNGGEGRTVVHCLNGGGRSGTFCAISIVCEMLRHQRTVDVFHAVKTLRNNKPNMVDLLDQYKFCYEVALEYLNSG
# UniProt Q8TDM6: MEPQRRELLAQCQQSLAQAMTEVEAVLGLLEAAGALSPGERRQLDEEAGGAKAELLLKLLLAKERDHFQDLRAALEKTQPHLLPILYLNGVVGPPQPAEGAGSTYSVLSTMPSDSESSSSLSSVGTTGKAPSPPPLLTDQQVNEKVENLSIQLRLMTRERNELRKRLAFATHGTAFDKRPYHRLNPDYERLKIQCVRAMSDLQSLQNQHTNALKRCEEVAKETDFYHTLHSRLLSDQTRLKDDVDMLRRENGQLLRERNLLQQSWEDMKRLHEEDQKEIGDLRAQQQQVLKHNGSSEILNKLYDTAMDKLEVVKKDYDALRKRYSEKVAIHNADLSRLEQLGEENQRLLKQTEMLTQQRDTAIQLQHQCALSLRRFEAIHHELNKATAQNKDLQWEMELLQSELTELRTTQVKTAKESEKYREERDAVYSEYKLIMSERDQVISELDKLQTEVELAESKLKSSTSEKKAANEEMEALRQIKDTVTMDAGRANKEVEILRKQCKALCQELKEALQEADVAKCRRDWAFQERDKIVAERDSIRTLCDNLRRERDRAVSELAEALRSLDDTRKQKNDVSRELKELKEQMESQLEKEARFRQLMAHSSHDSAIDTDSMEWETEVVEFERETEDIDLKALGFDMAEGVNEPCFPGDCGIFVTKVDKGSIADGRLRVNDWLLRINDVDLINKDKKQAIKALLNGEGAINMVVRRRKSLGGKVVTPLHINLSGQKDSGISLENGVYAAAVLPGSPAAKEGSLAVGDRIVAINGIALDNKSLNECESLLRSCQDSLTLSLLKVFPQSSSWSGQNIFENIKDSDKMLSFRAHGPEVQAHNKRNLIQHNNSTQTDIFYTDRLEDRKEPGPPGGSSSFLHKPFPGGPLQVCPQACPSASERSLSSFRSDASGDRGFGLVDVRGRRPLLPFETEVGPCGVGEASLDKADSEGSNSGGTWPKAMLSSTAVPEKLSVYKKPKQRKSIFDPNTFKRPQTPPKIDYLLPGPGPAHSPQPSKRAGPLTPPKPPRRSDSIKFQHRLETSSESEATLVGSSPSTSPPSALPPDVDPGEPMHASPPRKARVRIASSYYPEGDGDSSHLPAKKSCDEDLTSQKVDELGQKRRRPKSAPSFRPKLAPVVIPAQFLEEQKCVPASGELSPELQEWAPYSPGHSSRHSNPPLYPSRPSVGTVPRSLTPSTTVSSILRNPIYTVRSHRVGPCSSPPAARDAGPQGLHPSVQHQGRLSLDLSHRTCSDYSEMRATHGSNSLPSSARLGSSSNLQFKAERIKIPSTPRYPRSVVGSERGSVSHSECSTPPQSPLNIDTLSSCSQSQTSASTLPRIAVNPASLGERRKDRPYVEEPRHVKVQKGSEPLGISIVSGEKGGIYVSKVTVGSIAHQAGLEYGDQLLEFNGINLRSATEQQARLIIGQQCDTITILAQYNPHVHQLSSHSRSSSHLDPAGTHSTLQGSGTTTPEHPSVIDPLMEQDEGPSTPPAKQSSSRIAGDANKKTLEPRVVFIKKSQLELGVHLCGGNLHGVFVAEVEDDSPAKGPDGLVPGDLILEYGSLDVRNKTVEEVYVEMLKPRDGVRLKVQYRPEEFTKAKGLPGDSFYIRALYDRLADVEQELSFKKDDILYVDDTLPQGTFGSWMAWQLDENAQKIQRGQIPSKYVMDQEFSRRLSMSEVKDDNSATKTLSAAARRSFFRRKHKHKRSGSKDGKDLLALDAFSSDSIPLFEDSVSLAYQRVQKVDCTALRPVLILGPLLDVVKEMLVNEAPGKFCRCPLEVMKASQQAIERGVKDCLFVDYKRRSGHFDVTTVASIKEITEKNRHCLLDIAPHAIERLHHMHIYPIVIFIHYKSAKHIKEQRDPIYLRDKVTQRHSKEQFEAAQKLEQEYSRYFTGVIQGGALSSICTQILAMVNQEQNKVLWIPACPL
# UniProt Q8N4C8: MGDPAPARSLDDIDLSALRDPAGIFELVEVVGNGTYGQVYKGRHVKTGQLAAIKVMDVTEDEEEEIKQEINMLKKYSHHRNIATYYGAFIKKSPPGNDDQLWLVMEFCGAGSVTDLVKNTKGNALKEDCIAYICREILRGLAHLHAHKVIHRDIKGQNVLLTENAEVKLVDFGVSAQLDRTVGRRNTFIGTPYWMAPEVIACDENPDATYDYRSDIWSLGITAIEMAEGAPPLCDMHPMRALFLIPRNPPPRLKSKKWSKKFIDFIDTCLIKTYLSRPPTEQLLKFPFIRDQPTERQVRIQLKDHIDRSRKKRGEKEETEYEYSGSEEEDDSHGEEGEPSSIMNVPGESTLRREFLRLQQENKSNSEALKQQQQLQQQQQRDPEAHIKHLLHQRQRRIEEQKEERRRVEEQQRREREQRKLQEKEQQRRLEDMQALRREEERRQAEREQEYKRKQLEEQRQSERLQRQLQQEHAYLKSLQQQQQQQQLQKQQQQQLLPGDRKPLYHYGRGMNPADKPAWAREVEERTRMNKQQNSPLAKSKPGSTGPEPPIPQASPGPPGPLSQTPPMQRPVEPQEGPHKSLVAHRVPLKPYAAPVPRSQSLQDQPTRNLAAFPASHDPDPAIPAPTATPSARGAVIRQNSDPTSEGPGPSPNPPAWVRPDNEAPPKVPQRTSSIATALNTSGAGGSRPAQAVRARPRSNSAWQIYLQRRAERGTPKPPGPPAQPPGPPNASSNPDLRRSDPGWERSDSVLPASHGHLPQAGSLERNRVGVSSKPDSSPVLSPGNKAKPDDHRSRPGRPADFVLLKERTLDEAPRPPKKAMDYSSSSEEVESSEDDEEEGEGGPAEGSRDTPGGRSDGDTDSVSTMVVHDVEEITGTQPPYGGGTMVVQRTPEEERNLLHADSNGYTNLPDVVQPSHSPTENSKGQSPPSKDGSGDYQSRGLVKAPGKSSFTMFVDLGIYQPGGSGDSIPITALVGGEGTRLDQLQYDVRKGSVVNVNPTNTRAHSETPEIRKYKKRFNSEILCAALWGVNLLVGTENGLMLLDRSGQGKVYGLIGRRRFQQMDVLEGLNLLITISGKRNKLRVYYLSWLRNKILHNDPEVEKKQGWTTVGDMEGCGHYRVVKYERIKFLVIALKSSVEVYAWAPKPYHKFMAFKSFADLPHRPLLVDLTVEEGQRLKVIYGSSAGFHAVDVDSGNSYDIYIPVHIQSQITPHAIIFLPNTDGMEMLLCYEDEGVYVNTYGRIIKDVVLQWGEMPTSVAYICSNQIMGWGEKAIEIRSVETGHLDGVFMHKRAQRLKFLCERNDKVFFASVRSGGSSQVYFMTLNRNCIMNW
# No constants are given. Whether binding was seen depends on the method and setting. In cells and extracts the contact can be indirect. Some results given as binding are weak or reduced against the parent protein; the word gives no strength.
# T1: PTPRK ICD-C1089S (substrate-trapping mutant) (human) (UniProt Q15262)
# T1 sequence (chain, biotin on the AviTag): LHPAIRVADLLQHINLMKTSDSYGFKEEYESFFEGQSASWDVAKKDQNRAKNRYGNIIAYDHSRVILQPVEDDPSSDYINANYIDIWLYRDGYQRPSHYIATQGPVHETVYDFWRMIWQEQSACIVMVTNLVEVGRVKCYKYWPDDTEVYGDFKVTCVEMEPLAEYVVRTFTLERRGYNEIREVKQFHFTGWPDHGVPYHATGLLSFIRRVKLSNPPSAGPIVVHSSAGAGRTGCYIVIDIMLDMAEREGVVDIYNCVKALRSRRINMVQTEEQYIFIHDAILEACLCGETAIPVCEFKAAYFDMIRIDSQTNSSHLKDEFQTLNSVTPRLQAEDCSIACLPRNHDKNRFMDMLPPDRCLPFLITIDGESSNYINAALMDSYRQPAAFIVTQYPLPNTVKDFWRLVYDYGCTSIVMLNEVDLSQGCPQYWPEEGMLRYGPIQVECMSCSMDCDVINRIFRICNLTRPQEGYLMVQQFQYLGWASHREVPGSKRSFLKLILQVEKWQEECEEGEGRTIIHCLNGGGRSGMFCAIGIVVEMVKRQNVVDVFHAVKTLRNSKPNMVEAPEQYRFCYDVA
# Target: T1, PTPRK ICD-C1089S (substrate-trapping mutant) (human)
# Assay: pull-down; biotinylated His.TEV.Avi PTPRK, PTPRM or chimeric domains on streptavidin-coated magnetic beads; lysate of confluent, pervanadate-treated MCF10A cells, 1.5 hr at 4°C; immunoblot of inputs, supernatants and pull downs; only the target purified
row,Molecule,binding
1,"NUFIP2 (protein, UniProt Q7Z417 1-695) MEEKPGQPQPQHHHSHHHPHHHPQQQQQQPHHHHHYYFYNHSHNHHHHHHHQQPHQYLQHGAEGSPKAQPKPLKHEQKHTLQQHQETPKKKTGYGELNGNAGEREISLKNLSSDEATNPISRVLNGNQQVVDTSLKQTVKANTFGKAGIKTKNFIQKNSMDKKNGKSYENKSGENQSVDKSDTIPIPNGVVTNNSGYITNGYMGKGADNDGSGSESGYTTPKKRKARRNSAKGCENLNIVQDKIMQQETSVPTLKQGLETFKPDYSEQKGNRVDGSKPIWKYETGPGGTSRGKPAVGDMLRKSSDSKPGVSSKKFDDRPKGKHASAVASKEDSWTLFKPPPVFPVDNSSAKIVPKISYASKVKENLNKTIQNSSVSPTSSSSSSSSTGETQTQSSSRLSQVPMSALKSVTSANFSNGPVLAGTDGNVYPPGGQPLLTTAANTLTPISSGTDSVLQDMSLTSAAVEQIKTSLFIYPSNMQTMLLSTAQVDLPSQTDQQNLGDIFQNQWGLSFINEPSAGPETVTGKSSEHKVMEVTFQGEYPATLVSQGAEIIPSGTEHPVFPKAYELEKRTSPQVLGSILKSGTTSESGALSLEPSHIGDLQKADTSSQGALVFLSKDYEIESQNPLASPTNTLLGSAKEQRYQRGLERNDSWGSFDLRAAIVYHTKEMESIWNLQKQDPKRIITYNEAMDSPDQ",binds

# Target: PTPRM intracellular domain (ICD) (human) (UniProt P28827)
# Assay: as above
row,Molecule,binding
1,DLG5 (from UniProt Q8TDM6 1-1919),binds
2,MINK1 (from UniProt Q8N4C8 1-1332),binds
3,"PTPN14 (protein, UniProt Q15678 1-1187) MPFGLKLRRTRRYNVLSKNCFVTRIRLLDSNVIECTLSVESTGQECLEAVAQRLELRETHYFGLWFLSKSQQARWVELEKPLKKHLDKFANEPLLFFGVMFYVPNVSWLQQEATRYQYYLQVKKDVLEGRLRCTLDQVIRLAGLAVQADFGDYNQFDSQDFLREYVLFPMDLALEEAVLEELTQKVAQEHKAHSGILPAEAELMYINEVERLDGFGQEIFPVKDNHGNCVHLGIFFMGIFVRNRIGRQAVIYRWNDMGNITHNKSTILVELINKEETALFHTDDIENAKYISRLFATRHKFYKQNKICTEQSNSPPPIRRQPTWSRSSLPRQQPYILPPVHVQCGEHYSETHTSQDSIFHGNEEALYCNSHNSLDLNYLNGTVTNGSVCSVHSVNSLNCSQSFIQASPVSSNLSIPGSDIMRADYIPSHRHSAIIVPSYRPTPDYETVMRQMKRGILHTDSQSQSLRNLNIINTHAYNQPEDLVYSQPEMRERHPYTVPYGPQGVYSNKLVSPSDQRNPKNNVVPSKPGASAISHTVSTPELANMQLQGSHNYSTAHMLKNYLFRPPPPYPRPRPATSTPDLASHRHKYVSGSSPDLVTRKVQLSVKTFQEDSSPVVHQSLQEVSEPLTATKHHGTVNKRHSLEVMNSMVRGMEAMTLKSLHLPMARRNTLREQGPPEEGSGSHEVPQLPQYHHKKTFSDATMLIHSSESEEEEEEAPESVPQIPMLREKMEYSAQLQAALARIPNKPPPEYPGPRKSVSNGALRQDQASLPPAMARARVLRHGPAKAISMSRTDPPAVNGASLGPSISEPDLTSVKERVKKEPVKERPVSEMFSLEDSIIEREMMIRNLEKQKMAGLEAQKRPLMLAALNGLSVARVSGREENRVDATRVPMDERFRTLKKKLEEGMVFTEYEQIPKKKANGIFSTAALPENAERSRIREVVPYEENRVELIPTKENNTGYINASHIKVVVGGAEWHYIATQGPLPHTCHDFWQMVWEQGVNVIAMVTAEEEGGRTKSHRYWPKLGSKHSSATYGKFKVTTKFRTDSVCYATTGLKVKHLLSGQERTVWHLQYTDWPDHGCPEDVQGFLSYLEEIQSVRRHTNSMLEGTKNRHPPIVVHCSAGVGRTGVLILSELMIYCLEHNEKVEVPMMLRLLREQRMFMIQTIAQYKFVYQVLIQFLQNSRLI",binds
4,"PKP3 (protein, UniProt Q9Y446 1-797) MQDGNFLLSALQPEAGVCSLALPSDLQLDRRGAEGPEAERLRAARVQEQVRARLLQLGQQPRHNGAAEPEPEAETARGTSRGQYHTLQAGFSSRSQGLSGDKTSGFRPIAKPAYSPASWSSRSAVDLSCSRRLSSAHNGGSAFGAAGYGGAQPTPPMPTRPVSFHERGGVGSRADYDTLSLRSLRLGPGGLDDRYSLVSEQLEPAATSTYRAFAYERQASSSSSRAGGLDWPEATEVSPSRTIRAPAVRTLQRFQSSHRSRGVGGAVPGAVLEPVARAPSVRSLSLSLADSGHLPDVHGFNSYGSHRTLQRLSSGFDDIDLPSAVKYLMASDPNLQVLGAAYIQHKCYSDAAAKKQARSLQAVPRLVKLFNHANQEVQRHATGAMRNLIYDNADNKLALVEENGIFELLRTLREQDDELRKNVTGILWNLSSSDHLKDRLARDTLEQLTDLVLSPLSGAGGPPLIQQNASEAEIFYNATGFLRNLSSASQATRQKMRECHGLVDALVTSINHALDAGKCEDKSVENAVCVLRNLSYRLYDEMPPSALQRLEGRGRRDLAGAPPGEVVGCFTPQSRRLRELPLAADALTFAEVSKDPKGLEWLWSPQIVGLYNRLLQRCELNRHTTEAAAGALQNITAGDRRWAGVLSRLALEQERILNPLLDRVRTADHHQLRSLTGLIRNLSRNARNKDEMSTKVVSHLIEKLPGSVGEKSPPAEVLVNIIAVLNNLVVASPIAARDLLYFDGLRKLIFIKKKRDSPDSEKSSRAASSLLANLWQYNKLHRDFRAKGYRKEDFLGP",binds
5,"ABLIM3 (protein, UniProt O94929 1-683) MNTSIPYQQNPYNPRGSSNVIQCYRCGDTCKGEVVRVHNNHFHIRCFTCQVCGCGLAQSGFFFKNQEYICTQDYQQLYGTRCDSCRDFITGEVISALGRTYHPKCFVCSLCRKPFPIGDKVTFSGKECVCQTCSQSMASSKPIKIRGPSHCAGCKEEIKHGQSLLALDKQWHVSCFKCQTCSVILTGEYISKDGVPYCESDYHAQFGIKCETCDRYISGRVLEAGGKHYHPTCARCVRCHQMFTEGEEMYLTGSEVWHPICKQAARAEKKLKHRRTSETSISPPGSSIGSPNRVICAKVDNEILNYKDLAALPKVKSIYEVQRPDLISYEPHSRYMSDEMLERCGYGESLGTLSPYSQDIYENLDLRQRRASSPGYIDSPTYSRQGMSPTFSRSPHHYYRSGPESGRSSPYHSQLDVRSSTPTSYQAPKHFHIPAGDSNIYRKPPIYKRHGDLSTATKSKTSEDISQTSKYSPIYSPDPYYASESEYWTYHGSPKVPRARRFSSGGEEDDFDRSMHKLQSGIGRLILKEEMKARSSSYADPWTPPRSSTSSREALHTAGYEMSLNGSPRSHYLADSDPLISKSASLPAYRRNGLHRTPSADLFHYDSMNAVNWGMREYKIYPYELLLVTTRGRNRLPKDVDRTRLERHLSQEEFYQVFGMTISEFDRLALWKRNELKKQARLF",binds
